These are yes or no findings as the source states them, for the method shown. For some assays here: In cells and extracts the contact can be indirect. Some entries that bind do so weakly or less than the wild type. Where a sequence is shown, tags or fusion partners need not be part of it.
T1: cYFP-RCAR14 (Arabidopsis thaliana) (UniProt O80992)
T1 sequence: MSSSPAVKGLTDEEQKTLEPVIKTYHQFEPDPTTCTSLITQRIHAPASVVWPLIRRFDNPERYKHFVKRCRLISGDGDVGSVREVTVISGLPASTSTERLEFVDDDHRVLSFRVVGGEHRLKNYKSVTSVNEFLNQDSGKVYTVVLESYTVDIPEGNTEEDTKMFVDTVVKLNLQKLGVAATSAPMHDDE

Protein sequences, listed by entry. Tags and fused reporters are not part of them.
UniProt Q8VZS8: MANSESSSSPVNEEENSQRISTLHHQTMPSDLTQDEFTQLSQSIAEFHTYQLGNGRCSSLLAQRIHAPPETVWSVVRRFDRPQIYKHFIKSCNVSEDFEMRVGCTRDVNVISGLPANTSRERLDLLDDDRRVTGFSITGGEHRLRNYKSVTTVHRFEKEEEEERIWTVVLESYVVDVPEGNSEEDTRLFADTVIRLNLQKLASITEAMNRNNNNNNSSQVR

T2: cYFP-RCAR13 (Arabidopsis thaliana) (UniProt Q9SSM7)
T2 sequence: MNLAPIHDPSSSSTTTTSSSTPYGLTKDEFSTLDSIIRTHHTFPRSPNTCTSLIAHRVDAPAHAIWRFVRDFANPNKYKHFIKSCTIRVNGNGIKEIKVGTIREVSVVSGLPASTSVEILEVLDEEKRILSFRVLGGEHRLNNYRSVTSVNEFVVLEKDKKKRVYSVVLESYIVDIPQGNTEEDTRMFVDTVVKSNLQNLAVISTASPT

T3: RCAR9-YFP^N (Arabidopsis thaliana) (UniProt Q8S8E3)
T3 sequence: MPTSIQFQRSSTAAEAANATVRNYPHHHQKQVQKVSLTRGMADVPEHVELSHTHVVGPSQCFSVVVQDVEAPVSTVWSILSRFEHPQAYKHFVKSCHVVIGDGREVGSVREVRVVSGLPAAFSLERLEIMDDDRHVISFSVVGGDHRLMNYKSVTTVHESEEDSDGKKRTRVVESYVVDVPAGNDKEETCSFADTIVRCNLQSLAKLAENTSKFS

T4: 3*flag-RCAR13 (Arabidopsis thaliana) (UniProt Q9SSM7)
T4 sequence: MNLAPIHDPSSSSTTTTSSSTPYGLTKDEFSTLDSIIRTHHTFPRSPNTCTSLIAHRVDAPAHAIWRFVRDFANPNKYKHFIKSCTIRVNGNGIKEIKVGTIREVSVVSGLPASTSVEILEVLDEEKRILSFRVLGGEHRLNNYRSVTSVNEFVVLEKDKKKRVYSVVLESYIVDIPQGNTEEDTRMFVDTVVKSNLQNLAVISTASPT

T5: GST-RCAR13 (Arabidopsis thaliana) (UniProt Q9SSM7)
T5 sequence: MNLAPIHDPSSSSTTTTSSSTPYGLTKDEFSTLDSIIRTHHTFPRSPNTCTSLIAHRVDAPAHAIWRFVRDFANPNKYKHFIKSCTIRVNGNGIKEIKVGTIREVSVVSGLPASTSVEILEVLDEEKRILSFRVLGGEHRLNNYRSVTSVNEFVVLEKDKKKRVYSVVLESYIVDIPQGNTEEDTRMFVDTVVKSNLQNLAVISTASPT

T6: GST-RCAR14 (Arabidopsis thaliana) (UniProt O80992)
T6 sequence: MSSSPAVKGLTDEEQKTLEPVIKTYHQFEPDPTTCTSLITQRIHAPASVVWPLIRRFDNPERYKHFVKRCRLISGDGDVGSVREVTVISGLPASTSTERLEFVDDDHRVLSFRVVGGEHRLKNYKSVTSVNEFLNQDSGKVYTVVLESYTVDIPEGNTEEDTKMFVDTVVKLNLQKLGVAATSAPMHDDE


Experiments:
[1] = target: T1, cYFP-RCAR14 (Arabidopsis thaliana); test: split reporter; BiFC: nYFP and cYFP fusions co-expressed in N. benthamiana leaf cells by Agrobacterium infiltration; YFP imaged by confocal microscopy after 2 d
[2] = target: T2, cYFP-RCAR13 (Arabidopsis thaliana); test: as above
[3] = target: T3, RCAR9-YFP^N (Arabidopsis thaliana); test: as above
[4] = target: cYFP-RCAR12 (Arabidopsis thaliana) (UniProt Q8VZS8); test: as above
[5] = target: T4, 3*flag-RCAR13 (Arabidopsis thaliana); test: co-IP; 3*HA-CARK1 forms and 3*Flag-RCARs transiently expressed in N. benthamiana; crude extracts in IP buffer (50 mM HEPES pH 7.5, 150 mM NaCl, 1% Triton X-100); Anti-Flag M2 magnetic beads; anti-HA blot
[6] = target: 3*flag-RCAR12 (Arabidopsis thaliana) (UniProt Q8VZS8); test: as above
[7] = target: GST-RCAR12 (Arabidopsis thaliana) (UniProt Q8VZS8); test: pull-down; GST-RCARs bound to glutathione Sepharose 4B resin; His-CARK1-KD or His-CARK1-KD^N204A co-incubated 1 h at room temperature; 50 ug of each protein; SDS-PAGE and anti-His blot; both purified
[8] = target: T5, GST-RCAR13 (Arabidopsis thaliana); test: as above
[9] = target: T6, GST-RCAR14 (Arabidopsis thaliana); test: as above

Binder | binding [1] | binding [2] | binding [4] | binding [5] | binding [6] | other results
3*HA-CARK1 (enzyme, UniProt Q9LUT0 1-364) MGCFGCCGGGEDFRRVSETGPKPVHNTGGYNGGHHQRADPPKNLPVIQMQPISVAAIPADELRDITDNYGSKSLIGEGSYGRVFYGILKSGKAAAIKKLDSSKQPDQEFLAQVSMVSRLRQENVVALLGYCVDGPLRVLAYEYAPNGSLHDILHGRKGVKGAQPGPVLSWHQRVKIAVGAARGLEYLHEKANPHVIHRDIKSSNVLLFDDDVAKIADFDLSNQAPDMAARLHSTRVLGTFGYHAPEYAMTGTLSTKSDVYSFGVVLLELLTGRKPVDHTLPRGQQSVVTWATPKLSEDKVKQCVDARLNGEYPPKAVAKLAAVAALCVQYEADFRPNMSIVVKALQPLLNPPRSAPQTPHRNPY | – | – | – | binds | binds | –
3*HA-CARK1^N204A (enzyme, UniProt Q9LUT0 1-364) MGCFGCCGGGEDFRRVSETGPKPVHNTGGYNGGHHQRADPPKNLPVIQMQPISVAAIPADELRDITDNYGSKSLIGEGSYGRVFYGILKSGKAAAIKKLDSSKQPDQEFLAQVSMVSRLRQENVVALLGYCVDGPLRVLAYEYAPNGSLHDILHGRKGVKGAQPGPVLSWHQRVKIAVGAARGLEYLHEKANPHVIHRDIKSSAVLLFDDDVAKIADFDLSNQAPDMAARLHSTRVLGTFGYHAPEYAMTGTLSTKSDVYSFGVVLLELLTGRKPVDHTLPRGQQSVVTWATPKLSEDKVKQCVDARLNGEYPPKAVAKLAAVAALCVQYEADFRPNMSIVVKALQPLLNPPRSAPQTPHRNPY | – | – | – | no binding | no binding | –
His-CARK1-KD^N204A (domain or fragment, UniProt Q9LUT0 50-353) QPISVAAIPADELRDITDNYGSKSLIGEGSYGRVFYGILKSGKAAAIKKLDSSKQPDQEFLAQVSMVSRLRQENVVALLGYCVDGPLRVLAYEYAPNGSLHDILHGRKGVKGAQPGPVLSWHQRVKIAVGAARGLEYLHEKANPHVIHRDIKSSAVLLFDDDVAKIADFDLSNQAPDMAARLHSTRVLGTFGYHAPEYAMTGTLSTKSDVYSFGVVLLELLTGRKPVDHTLPRGQQSVVTWATPKLSEDKVKQCVDARLNGEYPPKAVAKLAAVAALCVQYEADFRPNMSIVVKALQPLLNPPR | – | – | – | – | – | binding [7]: no binding (tested: 50 ug of each protein); binding [8]: no binding (tested: 50 ug of each protein); binding [9]: no binding (tested: 50 ug of each protein)

Further lines, with some results ahead:

binding [1] | binding [2] | binding [4] | binding [5] | binding [6] | Binder | other results
binds | binds | binds | – | – | CARK1-nYFP (full-length CARK1 fused to a YFP fragment) (enzyme, UniProt Q9LUT0 1-364) MGCFGCCGGGEDFRRVSETGPKPVHNTGGYNGGHHQRADPPKNLPVIQMQPISVAAIPADELRDITDNYGSKSLIGEGSYGRVFYGILKSGKAAAIKKLDSSKQPDQEFLAQVSMVSRLRQENVVALLGYCVDGPLRVLAYEYAPNGSLHDILHGRKGVKGAQPGPVLSWHQRVKIAVGAARGLEYLHEKANPHVIHRDIKSSNVLLFDDDVAKIADFDLSNQAPDMAARLHSTRVLGTFGYHAPEYAMTGTLSTKSDVYSFGVVLLELLTGRKPVDHTLPRGQQSVVTWATPKLSEDKVKQCVDARLNGEYPPKAVAKLAAVAALCVQYEADFRPNMSIVVKALQPLLNPPRSAPQTPHRNPY | binding [3]: no binding
no binding | no binding | no binding | – | – | CARK1^N204A-nYFP (full-length mutant CARK1 fused to a YFP fragment) (enzyme, UniProt Q9LUT0 1-364) MGCFGCCGGGEDFRRVSETGPKPVHNTGGYNGGHHQRADPPKNLPVIQMQPISVAAIPADELRDITDNYGSKSLIGEGSYGRVFYGILKSGKAAAIKKLDSSKQPDQEFLAQVSMVSRLRQENVVALLGYCVDGPLRVLAYEYAPNGSLHDILHGRKGVKGAQPGPVLSWHQRVKIAVGAARGLEYLHEKANPHVIHRDIKSSAVLLFDDDVAKIADFDLSNQAPDMAARLHSTRVLGTFGYHAPEYAMTGTLSTKSDVYSFGVVLLELLTGRKPVDHTLPRGQQSVVTWATPKLSEDKVKQCVDARLNGEYPPKAVAKLAAVAALCVQYEADFRPNMSIVVKALQPLLNPPRSAPQTPHRNPY | –

From article PMC6322571, “CARK1 phosphorylates subfamily III members of ABA receptors” (Journal of Experimental Botany, 2018)
